From the supplement of paper PMC7580552
Where a name gives a salt, the structure may show the parent alone. This is one part of the list. Single values are uncertain, as repeats are few or missing.

Each compound was assayed on Escherichia coli W3110 (assay: planktonic growth (OD600) relative to untreated control; higher = more growth). Settings: 10 µM; 20-24 h; 30 °C; TB.
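Note: stationary (unshaken) cultures in 96-well plates, started at OD600 0.05 from mid-exponential cells, with compounds supplied from DMSO stocks.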

Structure (SMILES)	planktonic growth
CC(C)(C(=O)c1cccnc1)c1cccnc1 [Metyrapone]	95%
O=c1cc(-c2ccc(O)c(O)c2)oc2cc(O)cc(O)c12 [Luteolin]	97%
CC(C)/N=c1\cc2n(-c3ccc(Cl)cc3)c3ccccc3nc-2cc1Nc1ccc(Cl)cc1 [Clofazimine]	101%
O=C1Cc2cc(CCN3CCN(c4nsc5ccccc45)CC3)c(Cl)cc2N1 [Ziprasidone Hydrochloride]	115%
CCN[C@H]1C[C@H](C)S(=O)(=O)c2sc(S(N)(=O)=O)cc21 [Dorzolamide hydrochloride]	95%
CC(C)(S)C(N)C(=O)O (racemic) [D,L-Penicillamine]	104%
CC(=O)N(O)CCCCCNC(=O)CCC(=O)N(O)CCCCCNC(=O)CCC(=O)N(O)CCCCCN [Deferoxamine mesylate]	54%
CCCCOC(=O)c1ccc(N)cc1 [Butamben]	114%
CCCCC1=NC2(CCCC2)C(=O)N1Cc1ccc(-c2ccccc2-c2nnn[nH]2)cc1 [Irbesartan]	96%
N[C@@H]1CCCCN(c2c(F)cc3c(=O)c(C(=O)O)cn(C4CC4)c3c2Cl)C1 [Besifloxacin hydrochloride]	29%
CC[C@H]1OC(=O)[C@H](C)[C@@H](O[C@H]2C[C@@](C)(OC)[C@@H](O)[C@H](C)O2)[C@H](C)[C@@H](O[C@@H]2O[C@H](C)C[C@H](N(C)C)[C@H]2O)[C@](C)(OC)C[C@@H](C)C(=O)[C@H](C)[C@@H](O)[C@]1(C)O [Clarithromycin]	44%
CCOc1ccccc1OCC1CNCCO1 (centres undefined) [Viloxazine hydrochloride]	95%
CC(C)(C)C(=O)OCOC(=O)[C@@H]1N2C(=O)[C@@H](NC(=O)[C@H](N)c3ccccc3)[C@H]2SC1(C)C [Pivampicillin]	104%
O=C1NCN(c2ccccc2)C12CCN(CCCC(c1ccc(F)cc1)c1ccc(F)cc1)CC2 [Fluspirilen]	101%
N=C(N)NC(=O)c1nc(Cl)c(N)nc1N [Amiloride hydrochloride dihydrate]	112%
NS(=O)(=O)c1cc(C(=O)O)c(NCc2ccco2)cc1Cl [Furosemide]	94%
Cc1cc(C2CCCCC2)n(O)c(=O)c1 [Ciclopirox ethanolamine]	90%
COc1cc(C(=O)NS(=O)(=O)c2ccccc2C)ccc1Cc1cn(C)c2ccc(NC(=O)OC3CCCC3)cc12 [Zafirlukast]	112%
NS(=O)(=O)c1cc2c(cc1Cl)N=CNS2(=O)=O [Chlorothiazide]	92%
CN[C@H](CC(C)C)C(=O)N[C@H]1C(=O)N[C@@H](CC(N)=O)C(=O)N[C@H]2C(=O)N[C@H]3C(=O)N[C@H](C(=O)N[C@H](C(=O)O)c4cc(O)cc(O)c4-c4cc3ccc4O)[C@H](O)c3ccc(c(Cl)c3)Oc3cc2cc(c3O[C@@H]2O[C@H](CO)[C@@H](O)[C@H](O)[C@H]2O[C@H]2C[C@](C)(N)[C@H](O)[C@H](C)O2)Oc2ccc(cc2Cl)[C@H]1O [Vancomycin hydrochloride]	66%
CNS(=O)(=O)Cc1ccc2[nH]cc(CCN(C)C)c2c1 [Sumatriptan succinate]	104%
CC(C)COCC(CN(Cc1ccccc1)c1ccccc1)N1CCCC1 (centres undefined) [Bepridil hydrochloride]	111%
NC(=O)c1ncn([C@@H]2O[C@H](CO)[C@@H](O)[C@H]2O)n1 [Ribavirin]	94%
CCOC(=O)[C@H](CCc1ccccc1)N[C@@H](C)C(=O)N1[C@H](C(=O)O)C[C@@H]2CCC[C@@H]21 [Ramipril]	92%
CCOc1ccc2c(c1)C(C)=CC(C)(C)N2 [Ethoxyquin]	99%

Structure (SMILES)	planktonic growth
Cc1ccnc2c1NC(=O)c1cccnc1N2C1CC1 [Nevirapine]	102%
CN(C)CCC=C1c2ccccc2CCc2ccccc21 [Amitryptiline hydrochloride]	100%
Cc1[nH]c(=O)c(C#N)cc1-c1ccncc1 [Milrinone]	89%
Cn1c(=O)c2[nH]cnc2n(C)c1=O [Aminophylline]	92%
CS(=O)(=O)c1ccc(C2=C(c3ccccc3)C(=O)OC2)cc1 [Rofecoxib]	103%
CN1C(C(=O)Nc2ccccn2)=C(O)c2sccc2S1(=O)=O [Tenoxicam]	98%
Cc1ncc([N+](=O)[O-])n1CC(O)CCl (centres undefined) [Ornidazole]	100%
Cc1cccc(C)c1NC(=O)C1CCCCN1C (centres undefined) [Mepivacaine hydrochloride]	102%
C=C[C@H]1CN2CC[C@H]1C[C@@H]2[C@@H](O)c1ccnc2ccc(OC)cc12 [Quinidine hydrochloride monohydrate]	97%
C[C@]12CC[C@H]3C(=CCc4cc(O)ccc43)[C@@H]1CCC2=O [Equilin]	111%
CO[C@@]1(NC(=O)Cc2cccs2)C(=O)N2C(C(=O)O)=C(COC(N)=O)CS[C@@H]21 [Cefoxitin sodium salt]	23%
CC(=O)c1ccc2c(c1)N(CCCN1CCC(CCO)CC1)c1ccccc1S2 [Piperacetazine]	106%
O=C(CCCN1CCC(O)(c2ccc(Br)cc2)CC1)c1ccc(F)cc1 [Bromperidol]	86%
COc1cc2c(cc1OC)C(=O)C(CC1CCN(Cc3ccccc3)CC1)C2 (centres undefined) [Donepezil hydrochloride]	99%
CCCCC(CC)CN1CN(CC(CC)CCCC)CC(C)(N)C1 (centres undefined) [Hexetidine]	92%
COCC1=C(C(=O)OC(C)OC(=O)OC(C)C)N2C(=O)[C@@H](NC(=O)/C(=N\OC)c3csc(N)n3)[C@H]2SC1 (some centres undefined) [Cefpodoxime proxetil]	97%
CCN(CC)CCOC(=O)C(c1ccccc1)C1CCCCC1 (centres undefined) [Drofenine hydrochloride]	92%
COc1cc(Cc2cnc(N)nc2N)cc(OC)c1OC [Trimethoprim]	50%
CNCCC(Oc1ccccc1OC)c1ccccc1 (centres undefined) [Nisoxetine hydrochloride]	94%
CCCCC(C)(O)C/C=C/[C@H]1[C@H](O)CC(=O)[C@@H]1CCCCCCC(=O)OC (mixture of isomers) [Misoprostol]	97%
COc1ccccc1O [Guaiacol]	90%
O=C(O)CCC(=O)Nc1ccc(S(=O)(=O)Nc2nccs2)cc1 [Succinylsulfathiazole]	92%
COc1cnc(NS(=O)(=O)c2ccc(N)cc2)nc1 [Sulfameter]	67%
Cc1cccc(CN2CCN(C(c3ccccc3)c3ccc(Cl)cc3)CC2)c1 (centres undefined) [Meclozine dihydrochloride]	99%
CCOC(=O)C1=C[C@]2(CC)CCCN3CCc4c(n1c1ccccc41)[C@@H]32 [Vinpocetine]	93%

Structure (SMILES)	planktonic growth
C[C@]12CC[C@@H]3c4ccc(O)cc4CC[C@H]3[C@@H]1CCC2=O [Estrone]	95%
COc1cc(C(=O)NC2CCCNC2)cc(OC)c1OC (centres undefined) [Troxipide]	118%
CN(C)[C@@H]1C(O)=C(C(N)=O)C(=O)[C@@]2(O)C(O)=C3C(=O)c4c(O)ccc(Cl)c4[C@@](C)(O)[C@H]3C[C@@H]12 [Chlortetracycline hydrochloride]	21%
CC(=O)N(CC(C)C(=O)O)c1c(I)cc(I)c(N)c1I (centres undefined) [Iocetamic acid]	94%
c1ccc2[nH]c(-c3cscn3)nc2c1 [Tiabendazole]	96%
CN1CC2c3ccccc3Oc3ccc(Cl)cc3C2C1 (centres undefined) [Asenapine maleate]	93%
CC1CS(=O)(=O)CCN1/N=C/c1ccc([N+](=O)[O-])o1 (centres undefined) [Nifurtimox]	90%
COc1ccc(-c2cc(=O)c3c(O)cc(O[C@@H]4O[C@H](CO[C@@H]5O[C@@H](C)[C@H](O)[C@@H](O)[C@H]5O)[C@@H](O)[C@H](O)[C@H]4O)cc3o2)cc1O [Diosmin]	97%
CCCCCCCN(CC)CCCC(O)c1ccc(NS(C)(=O)=O)cc1 (centres undefined) [Ibutilide fumarate]	108%
CCOC(=O)OC(C)OC1=C(C(=O)Nc2ccccn2)N(C)S(=O)(=O)c2ccccc21 (centres undefined) [Ampiroxicam]	93%
CC(=O)[C@H]1CC[C@H]2[C@@H]3C[C@H](C)C4=CC(=O)CC[C@]4(C)[C@H]3[C@@H](O)C[C@]12C [Medrysone]	99%
CCCCNC(=O)NS(=O)(=O)c1ccc(C)cc1 [Tolbutamide]	86%
O=C(O)c1cc(-c2ccc(F)cc2F)ccc1O [Diflunisal]	108%
CC(C)(C)NC[C@H](O)c1ccc(O)c(CO)c1 [Levalbuterol hydrochloride]	99%
CCn1cc(C(=O)O)c(=O)c2cnc(N3CCCC3)nc21 [Piromidic acid]	111%
O=S(=O)(O)CCS [Mesna]	105%
CNCCC(Oc1ccc(C(F)(F)F)cc1)c1ccccc1 (centres undefined) [Fluoxetine hydrochloride]	99%
Cc1nc2n(c(=O)c1CCN1CCC(c3noc4cc(F)ccc34)CC1)CCCC2 [Risperidone]	94%
CC(=O)Nc1ccc(CC(=O)O)cc1 [Actarit]	95%
C[C@@H](CN1CC(=O)NC(=O)C1)N1CC(=O)NC(=O)C1 [Dexrazoxane hydrochloride]	108%
OCc1cc(C(O)CNCCCCCCOCCCCc2ccccc2)ccc1O (centres undefined) [Salmeterol]	98%
CC(=O)OCC(=O)[C@@]12N=C(C)O[C@@H]1C[C@H]1[C@@H]3CCC4=CC(=O)C=C[C@]4(C)[C@H]3[C@@H](O)C[C@@]12C [Deflazacort]	92%
O=C(O)Cc1sc(-c2ccccc2)nc1-c1ccc(Cl)cc1 [Fentiazac]	93%
CCN1CC(CCN2CCOCC2)C(c2ccccc2)(c2ccccc2)C1=O (centres undefined) [Doxapram hydrochloride]	106%
